The full ranking holds about 4,500 sequences; the median of “median log2 fold change of GCK-ALFA target abundance (FLAG IP / Myc IP barcode read proportion)” is about 0.078, and the lowest 2% start at about -0.6. This is one part of the list.
B1: GBRAP_80_6799 (protein)
chain: AEAALAAALAALAEIDPEIAERVARIVERARALGVSDADLADLVAAIAKLAKADKERARELVEELEEDLAEEEEEGDTARAAAVVRVHAGNALLEVEELE
B2: GBRAP_137_3676 (protein)
chain: SKVEIEIKEEDGLVEITVTVYDPEKAEETEEKLLDIAHEVGALAVAIKRNEDGSLEITIVVPEEKGEEAEKKVLELAKEYDEVIIKKEKDGKTEEEVIKK
B3: GBRAP_52_6291 (protein)
chain: SEEEVEKLVEEIVKLIKAGKLEEAIKLAKEAAKELSLEEVLLLGEKLIERIKELPEKDLDKAWEVIEALAEEIEKIFGAEEEADYLEARAAAAIYERLQK
B4: GBRAP_52_6047 (protein)
chain: SEEEIRRLAREAYEAMLAGDEERARALLREIFATKDEEKLEVFLETMVELAREARPEEHDAVARLVELAEEVGREAGIPEEFLDDFEARVFAAMYEAEQR
B5: GBRAP_35_5575 (protein)
chain: DTDETIVEMLLSTIEDLTLAVPDMPLETVVAAANALVRSVRELAEELKNDPEALKRLREAVQALLDAIRRHHADDPAAQAAAAALEDTAKYLEELAKKAE
B6: GBRAP_139_3749 (protein)
chain: MSTEEVIAQARELVRRLDEDPEAAIEALAELLSSLDDEKREAAARAIAEELLSKPYDEAEAFLEALAKRLREEYGDEDGAEIVEAEANRTLAEIAVREEA
B7: GBRAP_11_2925 (protein)
chain: KKEKLKEIAELAEELAELIEKLIKEGVDNEELIKEAEEKLKELKELVEKYSDEAEKKLAEIAEELFEEAKKDKENQLKYWQEMLATVRVLSGQFLLKLEE
B8: GBRAP_160_4273 (protein)
chain: SEKLKELIKELEESEKEILELVDEESPEEVKAFAVTELGSILLEAIELGVVSDEAEDKLAEIIDELEEELDEAKNASPEEIKKIIKEHYEKAKKILEEES

target: GABARAP, O95166; test: median log2 fold change of GCK-ALFA target abundance (FLAG IP / Myc IP barcode read proportion) (log2 ratio); each designed protein is fused to an ALFA-tag nanobody in HEK293 cells to bring the named protein to FLAG-tagged glucokinase (GCK); Myc marks an untargeted standard; higher = target protein stabilised (more abundant); settings: target protein: 3xFLAG-MCP-GCK-ALFA reporter; HEK293 landing pad (RPLP)
Sequence (O95166 whole entry, the tested form may be a part): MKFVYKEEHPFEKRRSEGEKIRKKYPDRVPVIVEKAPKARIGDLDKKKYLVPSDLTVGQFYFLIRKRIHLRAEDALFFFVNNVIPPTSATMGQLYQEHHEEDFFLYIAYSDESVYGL
Method: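 LABEL-seq trans screen in HEK293 landing-pad cells. Each de novo designed 100-aa effector handle, binding the indicated effector (E3 ligase, DUB or autophagy protein), is fused to a constant NbALFA target handle and induced with 2 ug/mL doxycycline. A FLAG-MCP-GCK-ALFA target and a Myc-MCP standard reporter were transfected, and after 48 h circRNA barcodes were recovered by anti-FLAG and anti-Myc IP and sequenced. The value is the median across barcodes (at least 3 per design) of log2(FLAG/Myc read-proportion ratio), with the two transfection replicates pooled. Negative values mean degradation and positive values mean stabilisation of the target.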

Row | Binder | median log2 fold change
1 | B1 | 0.027
2 | B2 | 0.249
3 | B3 | 0.0615
4 | B4 | 0.204
5 | B5 | 0.13
6 | B6 | 0.333
7 | B7 | 0.266
8 | B8 | -0.108
